# Data reported in patent publication US20210196654A1, “METHOD OF TREATING CONDITIONS” (Clexio Biosciences Ltd., priority 2019, published 2021).
# Test system: bone marrow cells of Crl:CD(SD) rats
# Assay: Mammalian erythrocyte micronucleus test
smiles,measurement,setting,value
"CN[C@]1(c2ccccc2Cl)CCCCC1=O [esketamine, (2S)-2-(2-Chlorophenyl)-2-(methylamino) cyclohexanone]",proportion of polychromatic erythrocytes vs vehicle control,"female rats, any dose level",no statistically significant decreases
same,"micronucleated polychromatic erythrocytes or bone marrow cell toxicity, conclusion","male or female rats, oral gavage",has not shown any evidence
